Results published in patent publication US8383640B2, “Substituted pyrimidine ether compounds and use thereof” (priority 2007, dated 2013).
Some of these results come from one statement about several compounds together. At least one structure is not confirmed: it was looked up by name or label, or the drawing left a doubt.

How the values were obtained:
corn rust = assay: Fungicidal activity in vivo, corn rust; conditions: 6.25 mg/L, plants sprayed, scored after 1 week
wheat powdery mildew = assay: Fungicidal activity in vivo, wheat powdery mildew; conditions: 400 mg/L, plants sprayed, scored after 1 week
cucumber grey mold = assay: Fungicidal activity in vitro, cucumber grey mold; assay type: cell-based; conditions: 25 mg/L, 24 hours incubation
[1] = system: mite (Tetranychus cinnabarinus); assay: Acaricidal activity, airbrush spray, mite; conditions: mortality after 2-3 days

COC=C(C(=O)OC)c1ccccc1COc1cc(C2CC2)nc(Nc2ccccc2)n1 [Compound 25]
control of corn rust (corn rust): more than 80%
control of wheat powdery mildew (wheat powdery mildew): more than 80%

CNC(=O)C(=NOC)c1ccccc1COc1cc(C2CC2)nc(Nc2ccccc2)n1 [Compound 665]
control of corn rust (corn rust): more than 80%

CNC(=O)N(OC)c1ccccc1COc1cc(C2CC2)nc(Nc2ccccc2)n1 [Compound 666]
control of corn rust (corn rust): more than 80%

COC(=O)N(OC)c1ccccc1COc1nc(Nc2ccccc2)nc(C)c1C [Compound 668]
control of cucumber grey mold (cucumber grey mold): more than 50%

CNC(=O)C(=NOC)c1ccccc1COc1nc(Nc2ccccc2)nc(C)c1C [Compound 669]
control of corn rust (corn rust): more than 80%

CNC(=O)C(=NOC)c1ccccc1COc1cc(C)nc(Nc2ccccc2)n1 [Compound 678]
control of corn rust (corn rust): more than 80%

COC=C(C(=O)OC)c1ccccc1COc1cc(C(F)(F)F)nc(NC(C)C)n1 [Compound 682]
control of mite ([1]; 40 mg/L): more than 95%

COC=C(C(=O)OC)c1ccccc1COc1cc(C(F)(F)F)nc(Nc2cccnc2Cl)n1 [Compound 691]
control of mite ([1]; 5 mg/L): more than 50%

COC=C(C(=O)OC)c1ccccc1COc1cc(C(F)(F)F)nc(Nc2cccc(Cl)c2Cl)n1 [Compound 694]
control of mite ([1]; 5 mg/L): more than 50%

COC=C(C(=O)OC)c1ccccc1COc1cc(C(F)(F)F)nc(Nc2ccc(C)c(C)c2)n1 [Compound 697]
control of mite ([1]; 40 mg/L): more than 95%

COC=C(C(=O)OC)c1ccccc1COc1cc(C(F)(F)F)nc(NC2CCCCC2)n1 [Compound 701]
control of mite ([1]; 5 mg/L): more than 50%
